Assay results taken from article PMC8892811.
These are yes or no findings as the source states them, for the method shown. In cells and extracts the contact can be indirect. Some binding calls cover weakened binding; strength is not graded here. Where a sequence is shown, tags or fusion partners need not be part of it.

Experiments:
Test in all cases: co-IP; whole-cell extracts of ESCs (700 μg lysate; lysis buffer 50 mM Tris-HCl pH 7.6, 250 mM NaCl, 0.05% NP40) incubated with 1 μg anti-cohesin antibody (SMC3, RAD21, REC8, STAG1, STAG2, STAG3) overnight, protein A/G agarose 3 h at 4 °C, western blot
[1] = target: T1, STAG2 (mouse (endogenous in J1 ESCs)) (UniProt O35638)
T1 sequence: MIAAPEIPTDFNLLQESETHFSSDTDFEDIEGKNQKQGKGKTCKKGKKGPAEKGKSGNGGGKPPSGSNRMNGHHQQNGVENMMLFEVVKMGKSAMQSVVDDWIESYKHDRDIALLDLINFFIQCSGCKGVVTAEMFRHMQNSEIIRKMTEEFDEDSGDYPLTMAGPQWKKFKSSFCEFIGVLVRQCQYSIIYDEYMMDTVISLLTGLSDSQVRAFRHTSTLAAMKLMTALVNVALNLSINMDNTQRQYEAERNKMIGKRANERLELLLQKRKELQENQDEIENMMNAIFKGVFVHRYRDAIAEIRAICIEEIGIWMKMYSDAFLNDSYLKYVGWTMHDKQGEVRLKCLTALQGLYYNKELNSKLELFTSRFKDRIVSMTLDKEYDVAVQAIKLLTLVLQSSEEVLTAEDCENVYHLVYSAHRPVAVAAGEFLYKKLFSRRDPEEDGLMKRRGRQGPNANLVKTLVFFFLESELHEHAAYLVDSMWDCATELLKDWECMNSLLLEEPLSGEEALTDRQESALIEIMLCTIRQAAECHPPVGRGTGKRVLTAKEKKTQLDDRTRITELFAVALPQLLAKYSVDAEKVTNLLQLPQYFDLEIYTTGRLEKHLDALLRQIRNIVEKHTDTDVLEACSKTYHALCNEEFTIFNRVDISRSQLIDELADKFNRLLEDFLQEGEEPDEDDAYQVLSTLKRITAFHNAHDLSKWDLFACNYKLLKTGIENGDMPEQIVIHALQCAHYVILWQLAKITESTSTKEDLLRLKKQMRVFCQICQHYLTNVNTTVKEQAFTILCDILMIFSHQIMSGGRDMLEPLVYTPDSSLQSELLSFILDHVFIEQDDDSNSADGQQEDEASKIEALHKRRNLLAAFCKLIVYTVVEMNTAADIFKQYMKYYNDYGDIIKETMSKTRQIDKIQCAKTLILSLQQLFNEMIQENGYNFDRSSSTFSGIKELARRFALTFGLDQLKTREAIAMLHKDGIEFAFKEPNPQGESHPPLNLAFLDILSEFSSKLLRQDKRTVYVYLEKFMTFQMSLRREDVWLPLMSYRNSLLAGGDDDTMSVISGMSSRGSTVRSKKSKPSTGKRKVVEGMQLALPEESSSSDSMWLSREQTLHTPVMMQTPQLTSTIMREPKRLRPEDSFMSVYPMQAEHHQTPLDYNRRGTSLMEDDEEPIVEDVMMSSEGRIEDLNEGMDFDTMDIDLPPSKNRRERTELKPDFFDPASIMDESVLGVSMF

[2] = target: T2, STAG1 (mouse (endogenous in J1 ESCs)) (UniProt Q9D3E6)
T2 sequence: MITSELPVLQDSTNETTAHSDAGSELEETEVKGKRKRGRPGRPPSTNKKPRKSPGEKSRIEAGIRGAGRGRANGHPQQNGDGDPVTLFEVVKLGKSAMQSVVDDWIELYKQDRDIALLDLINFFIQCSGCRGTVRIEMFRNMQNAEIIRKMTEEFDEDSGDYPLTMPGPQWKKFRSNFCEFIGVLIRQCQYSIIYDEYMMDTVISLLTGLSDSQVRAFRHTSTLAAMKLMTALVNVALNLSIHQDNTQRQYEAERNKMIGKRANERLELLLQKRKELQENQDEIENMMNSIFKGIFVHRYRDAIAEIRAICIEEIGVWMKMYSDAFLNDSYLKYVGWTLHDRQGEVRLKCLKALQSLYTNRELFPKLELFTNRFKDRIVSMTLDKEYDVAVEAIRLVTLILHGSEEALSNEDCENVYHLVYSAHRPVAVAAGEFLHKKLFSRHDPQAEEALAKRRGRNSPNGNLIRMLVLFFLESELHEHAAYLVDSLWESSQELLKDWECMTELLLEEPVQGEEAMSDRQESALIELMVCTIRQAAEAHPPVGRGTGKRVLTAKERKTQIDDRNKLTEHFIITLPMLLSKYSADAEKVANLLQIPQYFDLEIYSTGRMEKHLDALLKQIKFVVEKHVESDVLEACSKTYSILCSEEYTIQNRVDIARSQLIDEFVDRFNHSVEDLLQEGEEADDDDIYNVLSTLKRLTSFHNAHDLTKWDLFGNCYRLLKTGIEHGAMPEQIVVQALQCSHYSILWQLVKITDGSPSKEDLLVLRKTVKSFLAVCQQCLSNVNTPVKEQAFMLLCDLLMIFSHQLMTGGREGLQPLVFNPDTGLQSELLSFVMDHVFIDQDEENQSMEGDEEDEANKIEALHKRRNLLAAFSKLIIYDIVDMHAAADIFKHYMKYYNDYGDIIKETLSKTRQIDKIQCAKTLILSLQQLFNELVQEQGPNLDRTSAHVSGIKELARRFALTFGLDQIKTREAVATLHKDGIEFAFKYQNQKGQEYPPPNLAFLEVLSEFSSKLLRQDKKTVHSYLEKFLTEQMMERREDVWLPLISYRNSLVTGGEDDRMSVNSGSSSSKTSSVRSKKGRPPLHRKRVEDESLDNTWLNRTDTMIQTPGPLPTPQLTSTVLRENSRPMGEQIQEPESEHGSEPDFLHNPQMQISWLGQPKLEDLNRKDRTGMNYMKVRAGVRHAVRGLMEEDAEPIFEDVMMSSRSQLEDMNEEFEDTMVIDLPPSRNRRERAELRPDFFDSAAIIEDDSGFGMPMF

[3] = target: T3, STAG3 (mouse (endogenous in J1 ESCs)) (UniProt O70576)
T3 sequence: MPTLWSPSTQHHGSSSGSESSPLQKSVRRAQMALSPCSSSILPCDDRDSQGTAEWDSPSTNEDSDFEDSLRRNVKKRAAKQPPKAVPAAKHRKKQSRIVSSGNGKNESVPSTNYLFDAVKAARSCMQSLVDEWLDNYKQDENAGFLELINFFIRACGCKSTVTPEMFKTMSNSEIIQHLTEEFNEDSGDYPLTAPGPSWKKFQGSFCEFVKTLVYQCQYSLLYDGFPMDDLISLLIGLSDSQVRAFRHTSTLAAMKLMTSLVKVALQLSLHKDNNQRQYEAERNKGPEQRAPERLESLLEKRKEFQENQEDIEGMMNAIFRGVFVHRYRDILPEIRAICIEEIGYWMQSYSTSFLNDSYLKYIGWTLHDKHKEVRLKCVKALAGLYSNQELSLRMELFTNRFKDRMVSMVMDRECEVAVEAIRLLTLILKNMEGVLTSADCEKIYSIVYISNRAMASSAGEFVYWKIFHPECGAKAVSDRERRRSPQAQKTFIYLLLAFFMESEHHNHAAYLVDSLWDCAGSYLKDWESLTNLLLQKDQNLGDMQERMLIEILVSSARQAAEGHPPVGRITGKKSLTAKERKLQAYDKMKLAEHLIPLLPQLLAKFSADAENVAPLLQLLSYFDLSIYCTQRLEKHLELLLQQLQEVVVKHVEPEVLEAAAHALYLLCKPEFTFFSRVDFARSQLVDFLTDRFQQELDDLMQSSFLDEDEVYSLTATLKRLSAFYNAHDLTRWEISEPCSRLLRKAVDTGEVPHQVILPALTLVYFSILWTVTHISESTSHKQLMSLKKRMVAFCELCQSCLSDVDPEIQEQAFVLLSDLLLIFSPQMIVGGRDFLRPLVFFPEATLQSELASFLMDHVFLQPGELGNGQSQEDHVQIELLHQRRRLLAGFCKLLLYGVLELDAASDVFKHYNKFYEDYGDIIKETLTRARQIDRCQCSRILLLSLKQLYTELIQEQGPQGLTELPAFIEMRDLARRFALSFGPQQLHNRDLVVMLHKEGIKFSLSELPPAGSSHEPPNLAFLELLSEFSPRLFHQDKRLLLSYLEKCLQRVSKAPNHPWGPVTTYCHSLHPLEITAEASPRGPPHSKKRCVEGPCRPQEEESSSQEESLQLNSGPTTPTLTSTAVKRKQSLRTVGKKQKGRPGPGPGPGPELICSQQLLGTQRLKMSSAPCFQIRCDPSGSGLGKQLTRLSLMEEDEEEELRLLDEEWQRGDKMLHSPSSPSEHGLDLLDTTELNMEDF

B1: REC8 (protein, UniProt Q8C5S7 1-591)
chain: MFYYPNVLQRHTGCFATIWLAATRGSRLVKREYLNVNVVKTCEEILNYVLVRVQPPVAGLPRPRFSLYLSAQLQIGVIRVYFQQCQYLVEDIQHILEHLHRAQLRIRIDMEEADLPSLLLPNCLAMMETLEDAPEPFFGKMSVDPRLPSPFDIPQIRHLLEAATPEKTRKETLPEATPDPRKPDRTLATVQSPEVITLQEAEPIRMLQIEGEQDLPEISRGDLELLIAEKDDAILLEERQRGRLLRQRRASLPLDESREEPRALEGAGLVSALSPPAPAQVEGIQEALPGQVFPPEVQKMTGWEPGALLTEVTPPQELRLPAPPSTEKRLPSLQRPLPRRHRRRQLLFWDKETQISREKFEEQLQTGAHCWEYPVAQPPKRMLTSPAELFRTPTLSGWLPPELLGLWTHCAQVPQRMLRQRPQLETEETVEEERAADEEERRKTEALSEIEVLREAQEPSGPLMLSSELSLEAAEDEKSRTSLIPPEWWAWSEEGQPEPPALPMLPELPEVPMEMPPRPELSSEAVLRAVALKLQANKELDFSSLVPPLSPRKLASRVFYLLLVLSTQKILLVEQQKPYGPLLIRPGPKFP
- binding [1]: no binding
- binding [2]: no binding
- binding [3]: binds
